Source: PubChem BioAssay AID493208 (National Center for Advancing Translational Sciences (NCATS), 2011)
Among all 44,000 compounds or so, about 340 (0.77%) were called active. Another 5% or so got no clear call; they are omitted. Calls follow the shape of the dose curve; as a rule, active = well fitted inhibition curve with a large enough effect; inconclusive = small, poorly fitted or top-dose-only effect; inactive = flat fitted curve, though single readings scatter. The list shows a part of the results.

Assay: Acumen qHTS Assay for Inhibitors of the mTORC1 Signaling Pathway in MEF (Tsc2-/-, p53-/-) Cells: Sytravon;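 also: plate controls were DMSO for no effect and rapamycin for full effect; nearly all actives have a fitted effect of over 50% in size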
Details: phospho-rpS6 immunofluorescence/PI, 24 h; series mostly up to 38.3 µM; activity change, negative = inhibition: at the top concentration
Procedure, shortened: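 Tsc2-/-, p53-/- MEFs (empty-vector stable line) in DMEM + 10% FBS were treated with compounds 24 h at 37 degree Celsius, fixed, and immunostained for phospho-rpS6 (Alexa-488) with propidium iodide counterstain. Laser-scanning cytometry gave % positive cells, normalized against 7.5 nM rapamycin and DMSO.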

Activity change, negative = inhibition, inactive:
COc1cc(NC(=O)CC2C(=O)N(c3cccc(C)c3)C(=O)N2Cc2ccc(F)cc2)cc(OC)c1 (configuration not stated) -0.798%
CCOC(=O)c1cc2c(=O)n3ccccc3nc2n(CC(C)C)c1=NC(=O)c1c(-c2c(F)cccc2Cl)noc1C -4.79%
CCCN(C(=O)c1noc2c1COc1ccc(C)cc1-2)c1ccc(Cl)c(Cl)c1 0%
COC(=O)c1ccccc1NC(=O)c1c(NC(=O)c2ccco2)sc2c1CCC(C(C)(C)C)C2 (configuration not stated) 12%
CC(=O)c1cccc(NC(=O)c2sc(-n3nc(C)c(Cc4ccc5c(c4)OCO5)c3C)nc2C)c1 -17.6%
CCOc1ccc(-c2cccc(NS(=O)(=O)c3c(C)cc(C)cc3C)c2)nn1 -4.9%
COc1ccccc1CCNC(=O)C(=O)NCC(c1ccc2c(c1)OCO2)N1CCOCC1 (configuration not stated) -2.01%
Cc1ccc2oc3c(c(=O)c2c1)C(c1ccc(F)cc1)N(Cc1ccc2c(c1)OCO2)C3=O (configuration not stated) -1.93%
COc1cccc(CNC(=O)C(=O)Nc2c3c(nn2-c2ccccc2)CSC3)c1 -0.0434%
CCN(C(=O)C1CCN(S(=O)(=O)c2ccc3c(c2)CCCN3C(C)=O)CC1)c1cccc(C)c1 -4.84%
COc1ccccc1OCC(=O)NCC(c1ccc(Cl)cc1)N1CCCCC1 (configuration not stated) -10.9%
Cc1c(Cl)cccc1NC(=O)Cn1c(CCC(=O)O)ccc1-c1cccs1 5.65%
CCOC(=O)c1c(NC(C)=O)c2c3c(sc2n1Cc1nc(-c2cccc(Cl)c2)oc1C)CCCC3 -6.37%
Cc1c(-c2ccc(Br)cc2)c(=O)oc2ccc(OC(=O)N3CCOCC3)cc12 -12.7%
COc1ccc(OC)c(-c2nnc3n(Cc4ccc(C)cc4)c(=O)c4ccccc4n23)c1 1.13%
CCN(CC)C(=O)CSc1nc(-c2ccccc2F)nc2c1Cc1c(CO)cnc(C)c1O2 -22.2%
CC(C)(C)OC(=O)N1CCC(c2c(C(=O)N3CCCCC3)cnn2-c2ccc(Cl)cc2)CC1 5.01%
CCOc1cc(C(=O)NCCc2csc3nc(-c4ccc(C)cc4)nn23)cc(OCC)c1OCC -0.174%
COC(=O)c1ccccc1NC(=O)CSc1nc2ccsc2c(=O)n1CCC(C)C -1.57%
COc1ccc(Cc2nc3ccccc3[nH]c2=O)cc1 -12.9%
C=Cc1ccc(Cn2c(C)c(CNCc3cccc(Br)c3)c(C(=O)O)c2C)cc1 -2.05%
Cc1cccc(Cn2c(CNS(=O)(=O)c3ccc4c(c3)CCCC4)nc3cccnc32)c1 1.29%
Cc1c(Cl)cccc1-c1ccc(C(=O)Nc2ccc(F)cc2)o1 6.01%
CCOC(=O)c1c(S(=O)(=O)N2CCCC(C(=O)NCc3ccc(Cl)cc3)C2)c(C)n(C)c1C (configuration not stated) -1.45%
COc1ccc(F)cc1S(=O)(=O)NCCc1csc2nc(-c3cccc(C)c3)nn12 -5.07%
COC(=O)c1ccc(OCC2c3cc(OC)c(OC)cc3CCN2C(=O)COc2ccc(Cl)cc2)cc1 (configuration not stated) 8.87%
O=C(c1ccccc1Cl)N1c2ncnn2C2(CCCCC2)[C@@H]2CCCC[C@@H]21 -1.17%
CCOC(=O)c1noc2ncn(CC(=O)Nc3ccc(C)c(F)c3)c(=O)c12 0.0694%
Cc1cccc(NC(=O)CCS(=O)(=O)c2ccc3c(c2)n(C)c(=O)c(=O)n3C)c1C -13.4%
CCOC(=O)C1CCCN(C(=O)c2nn(-c3ccc(OC)cc3)c(=O)c3c2c2ccccc2n3C)C1 (configuration not stated) 4.98%
Nc1nc(Nc2ccccc2F)sc1C(=O)c1ccc(Cl)cc1 -2.39%
CCc1cccc(NC(=O)C2CCN(C(=O)c3cnn(-c4ccccc4)c3-n3cccc3)CC2)c1 -0.225%
Cc1ccc(-n2c(=O)c3c(C)c(C(=O)N(C)C)sc3n(CC(=O)C(C)(C)C)c2=O)cc1C -3.59%
O=c1cc(-c2ccccc2)n2c(SCc3ccccc3)nnc2[nH]1 0.0486%
Cc1c(C(=O)N(Cc2ccccc2F)C2CCS(=O)(=O)C2)oc2ccc(F)cc12 (configuration not stated) 0%
COc1ccc(N2CC(NC(=O)COc3ccccc3)CC2=O)cc1OC (configuration not stated) -5.77%
Cn1c(=O)c2c(nc(NCc3ccccc3)n2Cc2ccccc2)n(C)c1=O -6.69%
Cn1c(=O)c2c(SCC(=O)NCc3ccco3)nc(-c3ccccc3)nc2n(C)c1=O -5.07%
CN(c1ncnc2onc(-c3cccc(Cl)c3)c12)C1CCCCC1 -6.52%
Cc1cccc(CNC(=O)Cn2nc(C)n3c(cc4cc(F)ccc43)c2=O)c1 -0.558%
CCc1ccc(-n2nc3cc(C)c(NC(=O)c4cccc5ccccc45)cc3n2)cc1 -5.61%
CC(C)CN(CCCNC(=O)Cn1ncc2c3ccccc3n(C)c2c1=O)CC(C)C -0.225%
COc1ccc(Cl)cc1NC(=O)CCS(=O)(=O)c1nc(-c2cccs2)cc(C(F)(F)F)n1 0.729%
CCOC(=O)c1ccc(NC(=O)Nc2c[nH]c(=O)[nH]c2=O)cc1 5.7%
Cc1ccc(CNC(=O)c2cc3c(s2)-c2ccccc2SC3)cc1 -8.2%
CCOC(=O)c1cc(-c2ccccc2)n(CC(=O)NC(C)c2ccccc2)c1C (configuration not stated) -15.6%
CC(C)COc1ccc(C(=O)Nc2cccc(-c3nc4ccccc4[nH]3)c2)cc1 21.2%
CCc1ccc(OC(C)C(=O)N2CCC(c3nc4ccccc4s3)CC2)cc1 (configuration not stated) -6.9%
O=C(NC1(C(F)(F)F)C(=O)Nc2c1c(=O)[nH]c(=O)n2CCc1ccccc1)c1ccc(Cl)cc1Cl (configuration not stated) 2.95%
COc1ccccc1-c1cc2nc(C)c(CCC(=O)Nc3ccc(Br)c(C)c3)c(C)n2n1 -0.898%
CCn1cc(C(=O)N2CCN(c3cccc(C(F)(F)F)c3)CC2)c2cc(OC)c(OC)cc2c1=O 2.75%
CCOc1ccccc1NC(=O)C1CCCN(S(=O)(=O)c2c(C)[nH]c(=O)[nH]c2=O)C1 (configuration not stated) 1.44%
CCOc1ccc(/C=C(\C#N)c2nc3ccccc3c(=O)[nH]2)cc1OC 5.01%
O=C(CSc1nnc(-c2ccccc2)c(-c2ccccc2)n1)NC1CCCCC1 -10.2%
CCOC(=O)N1CCc2c(sc(NCc3cccc(F)c3)c2C(=O)Nc2ccccc2OCC)C1 -2.44%
Cc1nc(N2C(=O)c3oc4ccccc4c(=O)c3C2c2cccc(OCCC(C)C)c2)sc1C (configuration not stated) -1.8%
Cc1ccc(N2CC(NC(=O)Cc3cccs3)CC2=O)cc1C (configuration not stated) -1.17%
COC(=O)c1nnn(CC(=O)NC(=O)Nc2cccc(C)c2C)c1C(=O)OC -5.65%
CCc1nc2ccc(C(=O)N3CCN(c4ccccc4)CC3)cc2nc1CC -7.62%
COc1ccc2c(c1)CCc1c(C(=O)Nc3ccc(F)c(Cl)c3)noc1-2 -1.11%
CCOc1cc(-c2nnc(SCC(=O)Nc3ccc(F)c(F)c3)nc2-c2ccc(OC)c(OCC)c2)ccc1OC 3.63%
COc1ccc(S(=O)(=O)N(CCc2ccccc2)CC(=O)Nc2ccc(C)c(C)c2)cc1OC 9.87%
CCC(=O)Nc1nnc(SCc2cc(=O)c3cc(C)ccc3[nH]2)s1 8.37%
O=C(Nc1cccc(-c2nc3ccccc3o2)c1)c1ccc(-c2ccc(Br)cc2)o1 -13%
Cc1c(C(=O)OC2CCCC2)[nH]c2c1C(=O)CC(c1ccc(Cl)cc1)C2 (configuration not stated) -7.33%
O=S(=O)(Nc1ccc(-c2ccc(N3CCCC3)nn2)cc1)c1ccc(Cl)cc1 -2.6%
CC(=O)N1CCc2c(sc3c2c(=O)n(-c2ccccc2)c(=O)n3CC(=O)Nc2cccc(C)c2)C1 1.48%
CCOc1ccc(CNS(=O)(=O)c2c(C(=O)N3CCC(C)CC3)c(C)n(C)c2C)cc1OC 0%
CC(C)N(C(=O)CSc1nc2ccc(Cl)cc2[nH]1)c1ccccc1 -2.57%
COc1ccccc1CNC(=O)CCCc1nnc2n(CC(C)C)c(=O)c3sccc3n12 -4.73%
COc1ccccc1CNC(=O)CCC1N=C2c3ccccc3N=C(SCc3cccc(Cl)c3)N2C1=O (configuration not stated) -21.2%
O=C(c1ccc(F)cc1)N1c2nc(-c3ccco3)nn2C2(CCCCC2)[C@@H]2CCCC[C@@H]21 0.0686%
COc1ccc(-c2cc3nc(-c4ccc(C)cc4)cc(C(F)(F)F)n3n2)cc1 -0.667%
CCOc1ccc(OCC)c(NS(=O)(=O)c2cc(Br)cc3c2N(C(C)=O)C(C)C3)c1 (configuration not stated) -15.2%
CCCCN(CC)CCNC(=O)c1cc2c(=O)oc3ccc(C)cc3c2s1 -9.35%
CCn1c(=O)c2cc(C(=O)NCCc3cc(OC)ccc3OC)sc2c2ccccc21 3.15%
CCc1ccc2oc(-c3ccc(NC(=O)c4ccc(OC)c(Br)c4)cc3)nc2c1 -0.648%
Cc1ccc(-n2c(C)nc3c(cnn3-c3ccccc3C)c2=O)cc1F -19.5%
O=C(NCc1cccc(F)c1)c1ccc(-n2cnc3cccnc32)cc1 1%
Cn1cc(S(=O)(=O)c2ccccc2)c(=O)c2cc(F)c(N3CCN(c4ccccc4)CC3)cc21 0.453%
Cc1cccc(-n2c(-c3ccccc3)cn3c4c(=O)[nH]c(=O)n(C)c4nc23)c1 -26.9%
Cc1ccc(-c2cc(C(F)(F)F)n3nc(C(=O)Nc4ccc(Cl)c(C(F)(F)F)c4)cc3n2)cc1 1.22%
Cc1cccc(C)c1OCC(=O)Nc1nc(-c2ccc(Br)cc2)ns1 0.135%
Cc1cc(C)c(Cn2c3ccccc3c3cnn(CC(=O)N4CCCCCC4)c(=O)c32)c(C)c1 0.985%
O=C(Cn1c(=O)n(-c2cccc(Cl)c2)c(=O)c2sc3ccccc3c21)N1CCCC1 -11.3%
CCOc1ccc(C(=O)Nc2c(C(=O)Nc3ccccc3F)oc3ccccc23)cc1OCC -4.65%
CCN(CC)CCCNC(=O)C1CCN(S(=O)(=O)CC)CC1 3.56%
CC(=O)c1ccc(NC(=O)c2c3c(nc4ccccc24)C(=O)N(C2CCCCC2)C3)cc1 -24.3%
O=S1(=O)c2ccccc2N(Cc2ccccc2)c2ccccc21 -7.3%
COC(=O)c1cc(C)nc2c1c(=O)nc(SCc1ccccc1F)n2C1CC1 7.53%
CC1CCN(Cc2c(O)ccc3c(=O)c(-c4cccc(Cl)c4)c(C(F)(F)F)oc23)CC1 8.34%
CC(=O)c1cc2c(cc1NC(=O)c1c(C)nn(-c3ccc(C)cc3)c1-n1cccc1)OCO2 1.04%
